Screen size: about 340,000 compounds; about 530 (0.16%) were called active. Inconclusive means that the source gave no clear call. Such entries were picked first, then a sample of the others. No stated cut-off is given here; in the data, active means activity change below about -80%; inconclusive means between about -30% and that limit; inactive means weaker than that.
Assay: Small Molecules that selectively kill Giardia lamblia: qHTS;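 further: parasites exposed to compound for two days anaerobically before the ATP read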
Conditions: Giardia lamblia trophozoite viability; at 7.66 µM; active compounds read low
Method in brief: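 Media and compound were dispensed first, then trophozoites at 100 cells/well; plates sat 48 hrs at 37 deg C without oxygen before ATP luminescence reagent was added and read after 15-30 min at room temperature.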
For `C[C@]12CCC3C(CC[C@H]4C[C@H](O)CC[C@]34C)C1C[C@H](O)[C@H]2O` (stereo not given in full), the activity change was inconclusive: -34.6% [inhibitor]. With `CN(C)N=O` the activity change was inconclusive: -41.9% [inhibitor]. With `Oc1ccccc1-[n+]1c(-c2ccccc2)cc(-c2ccccc2)c(O)c1-c1ccccc1` the activity change was inactive: 34.7%. With `CN1CCN(Cc2nc3ccccc3c(=O)[nH]2)CC1` the activity change was inactive: -6.67%. For `Cc1ccc(N)c(N)c1`, the activity change was inconclusive: -30.7% [inhibitor]. In the case of `COc1ccccc1N1C(=O)CC(=O)NC1=O`, the activity change is reported as inconclusive: -30.5% [inhibitor]. For `C=CC(=O)NCNC(=O)C=C`, the activity change was inconclusive: -34.7% [inhibitor]. For `CC(=O)OC1C(=O)OCC23CCC4(C)OC4C2OC2CC(OC(=O)C=CC=CC(=O)OCCC1C)C3(C)C21CO1` (stereo not given), the activity change was inconclusive: -41.5% [inhibitor]. With `O=c1[nH]c(=S)[nH]c(O)c1N=Nc1cccc(S(=O)(=O)N2CCOCC2)c1` the activity change was inconclusive: -39.2% [inhibitor]. In the case of `CCOc1ccc(-n2c(O)c(N=Nc3c(C)n(C)n(-c4ccccc4)c3=O)c(=O)[nH]c2=O)cc1`, the activity change is reported as inconclusive: -34.1% [inhibitor]. For `CCOP(=S)(OCC)Oc1cc(C)oc(=O)c1`, the activity change was inactive: -3.66%. With `NC(=O)c1cc(N2CC2)c([N+](=O)[O-])cc1[N+](=O)[O-]` the activity change was inconclusive: -78% [inhibitor]. In the case of `CN1C(=O)NC(=O)/C(=C\c2ccc([N+](=O)[O-])o2)C1=O`, the activity change is reported as inconclusive: -30.3% [inhibitor]. For `C=CCN1CC[C@]23c4c5ccc(O)c4O[C@H]2C(=O)CC[C@@]3(O)[C@H]1C5`, the activity change was inconclusive: -30.7% [inhibitor]. For `c1cnc(OCCN2CC2)cn1`, the activity change was inactive: -13.4%. For `CN(C)[C@@H]1C(=O)C(C(N)=O)=C(O)[C@@]2(O)C(=O)C3=C(O)c4c(O)cccc4[C@@](C)(O)C3C[C@@H]12` (stereo not given in full), the activity change was inconclusive: -30.9% [inhibitor]. For `COc1cc(C2(C#N)CCN(C)CC2)cc(OC)c1OC`, the activity change was inconclusive: -30.4% [inhibitor]. In the case of `O=c1[nH]sc2cc(F)ccc12`, the activity change is reported as inconclusive: -30.4% [inhibitor]. With `COc1ccc(CN2CCNCC2)cc1` the activity change was inconclusive: -43.6% [inhibitor]. With `O=c1c2ccccc2nc(-c2cccs2)n1-c1ccccc1` the activity change was inconclusive: -36.9% [inhibitor]. In the case of `Cc1ccc(C(c2nnnn2Cc2ccccc2)N2CC=C(c3ccc(F)cc3)CC2)cc1` (stereo not given), the activity change is reported as active: -90.2%. In the case of `CCC(=NC1CCN(Cc2ccccc2)CC1)c1c(O)[nH]c(=O)[nH]c1=O`, the activity change is reported as inconclusive: -31.1% [inhibitor]. With `O=C(O)c1ccccc1N=Nc1c(O)[nH]c(=O)[nH]c1=O` the activity change was inconclusive: -30.8% [inhibitor]. For `CC1CC(C)(O)CC(C(O)CC2CC(=O)NC(=O)C2)C1=O` (stereo not given), the activity change was inconclusive: -49.9% [inhibitor]. In the case of `CCOC(=O)c1cc(C)sc1/N=C/C1C(=O)NC(=S)NC1=O`, the activity change is reported as inactive: 9.44%. In the case of `COc1ccc2[nH]cc(CCN(C)C)c2c1`, the activity change is reported as inconclusive: -30.7% [inhibitor]. With `CCCC[N+]12CCC(CC1)C(C(=O)c1cccs1)C2` (stereo not given) the activity change was inactive: -2.79%. With `O=[N+]([O-])c1ccc(-c2ccccc2)c([As](=O)(O)O)c1` the activity change was active: -81.9%. For `C[N+]1(C)[C@@H]2CC(OC(=O)[C@H](CO)c3ccccc3)C[C@H]1[C@@H]1O[C@@H]12` (stereo not given in full), the activity change was inconclusive: -37.4% [inhibitor]. For `CCOc1ccccc1N1C(=O)CC(=O)NC1=O`, the activity change was inconclusive: -36.4% [inhibitor]. With `O=C(N/N=C/c1c(O)n(C2CC2)c(=S)[nH]c1=O)c1ccccc1Cl` the activity change was inconclusive: -35.9% [inhibitor]. In the case of `C=CCn1c(O)c(/C=N/NC(=O)c2ccncc2)c(=O)[nH]c1=O`, the activity change is reported as inconclusive: -32.3% [inhibitor]. In the case of `O=C(O)CCC(=O)NCCC1=c2ccccc2=N/C1=C\c1c(O)n(Cc2ccc(F)cc2)c(=S)[nH]c1=O`, the activity change is reported as inconclusive: -31.9% [inhibitor]. In the case of `O=[N+]([O-])c1cnc[nH]1`, the activity change is reported as inconclusive: -34.5% [inhibitor]. In the case of `O=c1c2ccccc2nc(/C=C/c2ccc([N+](=O)[O-])o2)n1-c1ccc(O)cc1`, the activity change is reported as active: -84.8%. For `O=[N+]([O-])c1cc([As](=O)(O)c2ccc(O)c([N+](=O)[O-])c2)ccc1O`, the activity change was active: -83.4%. For `C[CH2][Hg][S]c1ccccc1C(=O)O`, the activity change was inconclusive: -37.3% [inhibitor]. For `COc1ccc(-n2c(-c3ccccc3Br)nc3ccccc3c2=O)cc1`, the activity change was inconclusive: -37.4% [inhibitor]. In the case of `CC(=O)OC[C@]12CCC(C)=C[C@H]1O[C@@H]1[C@H](O)[C@@H](OC(C)=O)[C@@]2(C)[C@]12CO2`, the activity change is reported as inconclusive: -48.5% [inhibitor]. For `COc1ccccc1CN1CCN(C(=O)COc2cccc(C)c2)CC1`, the activity change was inactive: 35.6%. With `CN1CCC2(CC1)C(C#N)=C(N)NC(S)=C2C#N` the activity change was inconclusive: -36% [inhibitor]. In the case of `CN(C)C(=O)Oc1ccc(OCc2nc3ccccc3[nH]2)cc1`, the activity change is reported as inconclusive: -31.1% [inhibitor]. In the case of `Cc1[nH]c2ccccc2c1CN1CCCCC1`, the activity change is reported as inconclusive: -30.8% [inhibitor]. With `Cn1c(=O)cc(SCC(=O)N2CCC3(CC2)OCCO3)c2ccccc21` the activity change was inconclusive: -38.4% [inhibitor]. For `CCc1ccccc1NC(=O)N1C[C@H]2C[C@@H](C1)c1cccc(=O)n1C2`, the activity change was inconclusive: -34.7% [inhibitor]. With `Cc1ccc(C)c(NP(=O)(Oc2ccccc2)Oc2ccccc2)c1` the activity change was inconclusive: -37.7% [inhibitor]. For `CCN(CC)C(=O)c1ccc(NC(=O)Nc2ccccc2F)cc1`, the activity change was inconclusive: -40.3% [inhibitor]. In the case of `COC(=O)c1ccc(NC(=O)CSc2nc3ccc(N4C(=O)C5C6C=CC(C6)C5C4=O)cc3s2)cc1` (stereo not given), the activity change is reported as inactive: 9.35%. With `COc1ccccc1CCNCc1ccc(OC)c(OC)c1OC` the activity change was inconclusive: -32.2% [inhibitor]. In the case of `Cn1c(O)c(/C=N/c2ncccn2)c(=O)n(C)c1=O`, the activity change is reported as inactive: 12.3%.

Source: PubChem BioAssay AID540267 (National Center for Advancing Translational Sciences (NCATS), 2011)
On the % scale 0 is the no-effect control and ±100 the full control effect.
